Publication PMC4336329 (PLoS ONE, 2015)
Out of some 310,000 compounds screened, about 14,000 (4.5%) showed an effect of 50% or more. Effects have a minus sign here. The list shows a part of the results.

Biological target: human ether-à-go-go-related gene (hERG) potassium channel (human, UniProt Q12809)
Assay: primary screen, population patch clamp on CHO cells stably expressing hERG
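Further: peak tail current of the secondary pulse compared with the same well before compound.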

Sequence of human ether-à-go-go-related gene (hERG) potassium channel (Q12809 whole entry, looked up): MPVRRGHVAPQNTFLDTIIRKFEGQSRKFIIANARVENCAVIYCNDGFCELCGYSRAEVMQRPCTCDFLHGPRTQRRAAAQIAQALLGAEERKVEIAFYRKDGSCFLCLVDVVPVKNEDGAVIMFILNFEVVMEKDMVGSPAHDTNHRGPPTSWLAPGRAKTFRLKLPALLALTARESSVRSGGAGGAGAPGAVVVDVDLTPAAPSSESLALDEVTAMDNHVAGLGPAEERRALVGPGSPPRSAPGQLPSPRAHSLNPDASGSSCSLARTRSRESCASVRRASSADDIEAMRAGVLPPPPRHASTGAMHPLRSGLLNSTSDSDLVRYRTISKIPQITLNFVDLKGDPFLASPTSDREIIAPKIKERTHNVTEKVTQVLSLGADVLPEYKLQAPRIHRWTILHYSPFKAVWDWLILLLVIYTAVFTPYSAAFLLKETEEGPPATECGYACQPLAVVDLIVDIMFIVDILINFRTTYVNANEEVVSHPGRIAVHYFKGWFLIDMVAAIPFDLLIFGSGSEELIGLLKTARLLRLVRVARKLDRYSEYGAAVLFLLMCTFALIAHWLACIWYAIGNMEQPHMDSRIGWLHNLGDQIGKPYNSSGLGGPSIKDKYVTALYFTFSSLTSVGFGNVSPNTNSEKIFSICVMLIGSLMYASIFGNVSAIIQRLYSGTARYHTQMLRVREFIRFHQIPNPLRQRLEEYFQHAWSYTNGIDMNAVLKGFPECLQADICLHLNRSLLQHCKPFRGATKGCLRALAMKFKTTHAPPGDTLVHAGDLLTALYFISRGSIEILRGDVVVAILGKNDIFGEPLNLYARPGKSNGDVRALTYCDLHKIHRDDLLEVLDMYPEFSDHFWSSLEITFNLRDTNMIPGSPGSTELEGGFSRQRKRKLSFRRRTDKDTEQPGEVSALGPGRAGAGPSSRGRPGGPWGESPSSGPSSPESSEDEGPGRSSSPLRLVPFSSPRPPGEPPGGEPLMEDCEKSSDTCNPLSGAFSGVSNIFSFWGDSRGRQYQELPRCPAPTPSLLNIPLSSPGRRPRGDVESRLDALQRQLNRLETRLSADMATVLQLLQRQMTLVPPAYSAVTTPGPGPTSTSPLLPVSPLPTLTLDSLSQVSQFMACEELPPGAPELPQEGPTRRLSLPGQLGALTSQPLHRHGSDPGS

Point of comparison: `O=C(NCCCN1CCOCC1)C1CCCN(S(=O)(=O)N2CCCCC2)C1` (centres unmarked), “hERG current change (%, negative = inhibition) at 10uM” value 52.1%. Against it:
- COc1ccc(/C=C/C(=O)NC(=S)NNC(=O)c2cccs2)cc1OC — lower, 16.1%
- COc1ccc(CN2CCC(C(N)=O)CC2)cc1OCc1ccccc1.O=C(O)C(=O)O — lower, -19.1%
- COc1ccccc1N1CC(C)C(=O)NC1=S (centres unmarked) — lower, 9.86%
- Cc1ccc(S(=O)(=O)N2CCCCC2CCNC(=O)C(=O)NCc2ccccc2C)cc1 (centres unmarked) — lower, -0.496%
- Cc1cccc(NC(=O)CSc2nc3ccccc3c(=O)n2C)c1 — lower, 3.05%
- CCCOc1cccc(C(=O)NC(=S)Nc2ccc(N3CCN(C)CC3)cc2)c1 — lower, 1.67%
- CC1CCN(C(=O)CSc2nc3cccnc3n2C)CC1 — lower, 2.66%
- COc1ccc(Nc2nc(N3CCCC3)nc3ccccc23)c(OC)c1 — lower, -44.6%
- Cc1c(C(=O)N2CCc3ccccc32)oc2ccccc12 — lower, 6.24%
- CC1CN(C(=O)CN2C(=O)c3ccccc3S2(=O)=O)CC(C)O1 (centres unmarked) — lower, 3.72%
- CCc1nnc(NC(=O)CSc2nc(N)c(NC(=O)c3ccc(OC)cc3)c(=O)[nH]2)s1 — lower, 23.4%
- CCOCCc1nn2c(=O)cc(CSCC(=O)Nc3cc(C)cc(C)c3)nc2s1 — lower, 7.76%
- CN(C)c1ccc(P(=O)(COc2ccc([N+](=O)[O-])cc2)c2ccc(N(C)C)cc2)cc1 — lower, -41.9%
- CCOC(=O)c1ccc(N2C(=O)CC(C(=O)OC)=C2C)cc1 — lower, 8.74%
- COc1cccc2cc(C(=O)Nc3cc(C)cc(C)c3)/c(=N/NS(=O)(=O)c3ccccc3)oc12 — lower, 19.5%
- CCOc1ccccc1N1CCN(C(=O)C2CSC3(C)CCC(=O)N23)CC1 (centres unmarked) — lower, -6.5%
- COc1ccc(-c2ccc(S(=O)(=O)NCC3CCCO3)cc2)cc1 (centres unmarked) — lower, 8.68%
- C=CCNC(=O)c1ccc(Cn2c(=S)[nH]c3cc4c(cc3c2=O)OCO4)cc1 — lower, 15.5%
- O=C(/C=C/c1ccccc1)NC(=S)Nc1ccc2c3c(cccc13)CC2 — lower, 21.2%
- Cc1ccc(C(=O)N=c2sccn2C)o1 — lower, 23.6%
- O=c1[nH]c(=O)n(-c2ccccc2)c(O)c1C=NC12CN3CN(CN(C3)C1)C2 — lower, 9.13%
- CC(=O)NCCC(=O)N1CCc2c([nH]c3ccccc23)C1c1cccc(C)c1 (centres unmarked) — lower, -14.3%
- CC1CCN(C(=O)C2Cc3ccccc3CN2S(=O)(=O)c2ccc(F)cc2)CC1 (centres unmarked) — lower, -22.9%
- Cl.O=C(O)CCCCCNc1nc(-c2ccccc2)nc2ccccc12 — lower, 3.35%
- CCOC(=O)C1CCCN(C(=O)COC(=O)c2ccc(C#N)cc2)C1 (centres unmarked) — lower, 8.36%
- CC(C)C(=O)Nc1ncc(Cc2cccc(Cl)c2)s1 — lower, 0.846%
- Cc1cc(Oc2cc(N)cc([N+](=O)[O-])c2)ccc1Cl — lower, 1.43%
- O=C(O)C1C2C=CC(C2)C1C(=O)NCc1ccccc1 (centres unmarked) — lower, 2.2%
- CC(=O)Nc1cccc(NC(=O)CCCC2CCCCC2)c1 — lower, 12.5%
- CCCCn1c(-c2cccs2)nc2nc3ccccc3nc21 — lower, -6.55%
- COc1ccccc1N(C)S(=O)(=O)c1ccc(Cl)c(C(=O)NCC2(N(C)C)CCCCC2)c1 — lower, -36%
- COc1ccc(Cl)cc1NC(=O)CN(C)C(=O)Cc1ccc2c(c1)CCC2 — lower, -7.26%
- Cc1c(Cl)cccc1NC(=O)CCC(=O)NNC(=O)c1ccccc1Cl — lower, -3.57%
- O=C(NCc1ccco1)c1cc(S(=O)(=O)N2CCCc3ccccc32)ccc1Cl — lower, -24.9%
- Cc1ccc(-c2cc(-c3n[nH]c(=S)n3C)c3ccccc3n2)cc1 — lower, 17.4%
- Cc1ccc(Sc2nc3ccc(C)cn3c(=O)c2/C=N/O)cc1 — lower, 20.9%
- O[C@@H]1CN(C2CCCCC2)CC[C@H]1N1CCN(CCc2ccccc2)CC1 — lower, 7.97%
- COc1ccc([N+](=O)[O-])cc1NC(=O)C1CCCO1 (centres unmarked) — lower, 0.923%
- CC1(C)COCN1C(=O)c1ccc(C#N)cc1 — lower, 17.3%
- O=C(Nc1ccc2[nH]c(=O)[nH]c2c1)c1ccc(Cl)c(Cl)c1 — lower, 30%
- Cc1ccc2nc(N/C(=N/S(=O)(=O)c3cccs3)c3ccccc3Cl)sc2c1 — lower, -7.11%
- COc1cc(SC)ccc1C(=O)NCCOc1ccccc1Cl — lower, 2.89%
- CCOC(=O)N1CCC(n2c(=S)[nH]c3cc(OC)c(OC)cc3c2=O)CC1 — lower, 1.67%
